Source: the CheMixHub ionic liquid set
Further values from the same series stand in other lists.

Assay: xn = mol fraction of the nth substance listed

CCCCCC[n+]1ccn(C)c1.C[C@H](N)C(=O)[O-] + O
100 kPa, x1 = 0.01801
Settings | viscosity [mPa·s]
293.15 K | 2.103
298.15 K | 1.827
303.15 K | 1.595
308.15 K | 1.408
313.15 K | 1.255
318.15 K | 1.113
323.15 K | 1.006
328.15 K | 0.914

CCOS(=O)(=O)[O-].CC[n+]1ccn(C)c1 + O
Settings | viscosity [mPa·s]
293.15 K, 101 kPa, x1 = 0.151 | 7.07
293.15 K, 101.3 kPa, x1 = 0.002698 | 1.107
298.15 K, 101 kPa, x1 = 0.003 | 0.93
298.15 K, 101 kPa, x1 = 0.047 | 2.18
298.15 K, 101.3 kPa, x1 = 0.001795 | 0.96
298.15 K, 101.3 kPa, x1 = 0.002698 | 0.987
303.15 K, 101 kPa, x1 = 0.047 | 1.91
303.15 K, 101.3 kPa, x1 = 0.001795 | 0.845
303.15 K, 101.3 kPa, x1 = 0.002698 | 0.876
303.15 K, 101.3 kPa, x1 = 0.003589 | 0.899
308.15 K, 101.3 kPa, x1 = 0.001795 | 0.751
308.15 K, 101.3 kPa, x1 = 0.002698 | 0.788
308.15 K, 101.3 kPa, x1 = 0.003589 | 0.811
313.15 K, 101 kPa, x1 = 0.003 | 0.68
313.15 K, 101 kPa, x1 = 0.008 | 0.78
313.15 K, 101 kPa, x1 = 0.013 | 0.86
313.15 K, 101 kPa, x1 = 0.019 | 0.99
313.15 K, 101 kPa, x1 = 0.151 | 3.97
313.15 K, 101 kPa, x1 = 0.642 | 22.5
313.15 K, 101.3 kPa, x1 = 0.001795 | 0.679
313.15 K, 101.3 kPa, x1 = 0.002698 | 0.709
313.15 K, 101.3 kPa, x1 = 0.003589 | 0.727
328.15 K, 100 kPa, x1 = 0.008007 | 0.5856
328.15 K, 100 kPa, x1 = 0.009969 | 0.6066
328.15 K, 100 kPa, x1 = 0.01406 | 0.6467
328.15 K, 100 kPa, x1 = 0.0162 | 0.6557
